{"source": "patent US20120190616A1", "about": "(IPSEN PHARMA S A S, published 2012)", "binders": {"B1": {"name": "(Arg^49, Ile^59)hIGF-1([…])-OH (ligand)", "chain": "not shown", "notes": "synthetic; free acid C-terminus; disulfides […], 47-52, […]"}, "B2": {"name": "(Arg^51, Ile^59)hIGF-1([…])-OH (ligand)", "chain": "not shown", "notes": "as for B1"}, "B3": {"name": "(Arg^53, Ile^59)hIGF-1([…])-OH (ligand)", "chain": "not shown", "notes": "as for B1"}, "B4": {"name": "(Arg^59)hIGF-1([…])-OH (ligand)", "chain": "not shown", "notes": "as for B1"}, "B5": {"name": "(Asn^59,62)hIGF-1([…])-OH (ligand)", "chain": "not shown", "notes": "as for B1"}, "B6": {"name": "(Asn^59, D-Ala^69)hIGF-1([…])-OH (ligand)", "chain": "not shown", "modifications": "D-Ala at 67 (paragraph 170 prints D-Ala^69; the claims print D-Ala^67; the expected mass 7631.6 fits position 67)", "notes": "also called (Asn^59, D-Ala^67)hIGF-1([…])-OH"}, "B7": {"name": "(Asn^59, D-Ala^70)hIGF-1([…])-OH (ligand)", "chain": "not shown", "modifications": "D-Ala at 70", "notes": "synthetic; free acid C-terminus"}, "B8": {"name": "(Asn^59, D-Leu^64)hIGF-1([…])-OH (ligand)", "chain": "not shown", "modifications": "D-Leu at 64", "notes": "as for B7"}, "B9": {"name": "(Asn^59, D-Lys^65)hIGF-1([…])-OH (ligand)", "chain": "not shown", "modifications": "D-Lys at 65", "notes": "as for B7"}, "B10": {"name": "(Asn^59, D-Lys^68)hIGF-1([…])-OH (ligand)", "chain": "not shown", "modifications": "D-Lys at 68", "notes": "as for B7"}, "B11": {"name": "(Asn^59, D-Pro^63)hIGF-1([…])-OH (ligand)", "chain": "not shown", "modifications": "D-Pro at 63", "notes": "as for B7"}, "B12": {"name": "(Asn^59, D-Pro^66)hIGF-1([…])-OH (ligand)", "chain": "not shown", "modifications": "D-Pro at 66", "notes": "as for B7"}, "B13": {"name": "(Asn^59, D-Ser^69)hIGF-1([…])-OH (ligand)", "chain": "not shown", "modifications": "D-Ser at 69", "notes": "as for B7"}, "B14": {"name": "(Asn^59, Phe^60)hIGF-1([…])-OH (ligand)", "chain": "not shown", "notes": "as for B1"}, "B15": {"name": "(Asp^59)hIGF-1([…])-OH (ligand)", "chain": "not shown", "notes": "as for B1"}, "B16": {"name": "(Gln^56, Asn^59)hIGF-1([…])-OH (ligand)", "chain": "not shown", "notes": "as for B1"}, "B17": {"name": "(Glu^59)hIGF-1([…])-OH (ligand)", "chain": "not shown", "notes": "as for B1"}, "B18": {"name": "(Leu^49,59)hIGF-1([…])-OH (ligand)", "chain": "not shown", "notes": "as for B1"}, "B19": {"name": "(Leu^59, Thr^69)hIGF-1([…])-OH (ligand)", "chain": "not shown", "notes": "as for B1"}, "B20": {"name": "(Ser^50, Asn^59)hIGF-1([…])-OH (ligand)", "chain": "not shown", "notes": "as for B1"}, "B21": {"name": "(Ser^53, Asn^59)hIGF-1([…])-OH (ligand)", "chain": "not shown", "notes": "as for B1"}, "B22": {"name": "(Ser^59)hIGF-1([…])-OH (ligand)", "chain": "not shown", "notes": "as for B1"}, "B23": {"name": "(Thr^49, Asn^59)hIGF-1([…])-OH (ligand)", "chain": "not shown", "notes": "as for B1"}, "B24": {"name": "(Thr^51, Leu^59)hIGF-1([…])-OH (ligand)", "chain": "not shown", "notes": "as for B1"}, "B25": {"name": "(Trp^59)hIGF-1([…])-OH (ligand)", "chain": "not shown", "notes": "as for B1"}, "B26": {"name": "(Tyr^55, Asn^59)hIGF-1([…])-OH (ligand)", "chain": "not shown", "notes": "as for B1"}, "B27": {"name": "(Tyr^59)hIGF-1([…])-OH (ligand)", "chain": "not shown", "notes": "as for B1"}, "B28": {"name": "(Leu^59, Glu^71)hIGF-1([…])-OH (ligand)", "chain": "not shown", "notes": "synthetic; one residue added at position 71; free acid C-terminus"}, "B29": {"name": "(Leu^59, Asp^71)hIGF-1([…])-OH (ligand)", "chain": "not shown", "notes": "as for B28"}, "B30": {"name": "(Leu^59, Lys^71)hIGF-1([…])-OH (ligand)", "chain": "not shown", "notes": "as for B28"}, "B31": {"name": "(Leu^59, Ser^71)hIGF-1([…])-OH (ligand)", "chain": "not shown", "notes": "as for B28"}, "B32": {"name": "(Ser-Gly^1, Asn^59)hIGF-1([…])-OH (ligand)", "chain": "not shown", "notes": "synthetic; extra Ser before Gly1; free acid C-terminus; disulfides […], 47-52, […]"}}, "molecular_target": "T1, native IGF-1 receptor of human MCF-7 cells (human, UniProt P08069 31-1367)", "T1 construct": "whole, on cells; assayed in membranes prepared from MCF-7 cells", "test": "radioligand competition, [125I]IGF-1 on MCF-7 cell membranes", "method": "The homogenates were washed twice by centrifugation (39,000 g/10 minutes) and the final pellets were resuspended in 50 mM Tris-HCl containing 2.5 mM MgCl₂ and 0.1% BSA.\nUnlabeled competing test peptides were sometimes included. The final assay volume was 0.25 ml. […] The supernatant was decanted and the radioactive particles trapped in the pellet was counted by gamma spectrometry (Wallac LKB, Gaithersburg, Md., USA)."}
{"binder": "B1", "values": [{"measurement": "IC50", "result": 6.31, "unit": "nM"}]}
{"binder": "B2", "values": [{"measurement": "IC50", "result": 9.27, "unit": "nM"}]}
{"binder": "B3", "values": [{"measurement": "IC50", "result": 1.27, "unit": "nM"}]}
{"binder": "B4", "values": [{"measurement": "IC50", "result": 3.49, "unit": "nM"}]}
{"binder": "B5", "values": [{"measurement": "IC50", "result": 1.85, "unit": "nM"}]}
{"binder": "B6", "values": [{"measurement": "IC50", "result": 2.77, "unit": "nM"}]}
{"binder": "B7", "values": [{"measurement": "IC50", "result": 0.91, "unit": "nM"}]}
{"binder": "B8", "values": [{"measurement": "IC50", "result": 2.61, "unit": "nM"}]}
{"binder": "B9", "values": [{"measurement": "IC50", "result": 2.77, "unit": "nM"}]}
{"binder": "B10", "values": [{"measurement": "IC50", "result": 1.6, "unit": "nM"}]}
{"binder": "B11", "values": [{"measurement": "IC50", "result": 0.81, "unit": "nM"}]}
{"binder": "B12", "values": [{"measurement": "IC50", "result": 0.72, "unit": "nM"}]}
{"binder": "B13", "values": [{"measurement": "IC50", "result": 1.57, "unit": "nM"}]}
{"binder": "B14", "values": [{"measurement": "IC50", "result": 1.47, "unit": "nM"}]}
{"binder": "B15", "values": [{"measurement": "IC50", "result": 18.5, "unit": "nM"}]}
{"binder": "B16", "values": [{"measurement": "IC50", "result": 5.94, "unit": "nM"}]}
{"binder": "B17", "values": [{"measurement": "IC50", "result": 1.29, "unit": "nM"}]}
{"binder": "B18", "values": [{"measurement": "IC50", "result": 2.4, "unit": "nM"}]}
{"binder": "B19", "values": [{"measurement": "IC50", "result": 2.66, "unit": "nM"}]}
{"binder": "B20", "values": [{"measurement": "IC50", "result": 1.25, "unit": "nM"}]}
{"binder": "B21", "values": [{"measurement": "IC50", "result": 0.66, "unit": "nM"}]}
{"binder": "B22", "values": [{"measurement": "IC50", "result": 30.6, "unit": "nM"}]}
{"binder": "B23", "values": [{"measurement": "IC50", "result": 2.9, "unit": "nM"}]}
{"binder": "B24", "values": [{"measurement": "IC50", "result": 2.25, "unit": "nM"}]}
{"binder": "B25", "values": [{"measurement": "IC50", "result": 4.54, "unit": "nM"}]}
{"binder": "B26", "values": [{"measurement": "IC50", "result": 3.62, "unit": "nM"}]}
{"binder": "B27", "values": [{"measurement": "IC50", "result": 2.18, "unit": "nM"}]}
{"binder": "B28", "values": [{"measurement": "IC50", "result": 3.25, "unit": "nM"}]}
{"binder": "B29", "values": [{"measurement": "IC50", "result": 13.2, "unit": "nM"}]}
{"binder": "B30", "values": [{"measurement": "IC50", "result": 1.95, "unit": "nM"}]}
{"binder": "B31", "values": [{"measurement": "IC50", "result": 2.03, "unit": "nM"}]}
{"binder": "B32", "values": [{"measurement": "IC50", "result": 4.11, "unit": "nM"}]}
